The supplement of paper PMC10126150
Sequences with one replicate were seen in a single cluster, so their values are uncertain.

Test system: ATP
Test: switch fluorescence ratio, 500 uM ATP over buffer (Cy3 cluster intensity, sum of 5 cycles each) (fold (ratio)); higher = stronger signal-on switching upon ATP binding; sequences stand for … in TCGTCGGCAGCGTCAGATGTGTATAAGAGACAGTTTTTTTTTTTTTTTTTTTTTTTTT…TC
Conditions: aptamer strand: ATP DNA aptamer (quencher-CACCTGGGGGAGTATTGCGGAGGAAGG + anchor), 100 nM annealed; ATP concentration: 500 uM; one replicate
Procedure, shortened: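 Exposure to 500 uM ATP lasted 15 min at 22 °C before imaging, and a selection-buffer image was taken beforehand, for Cy3-labelled switching-strand clusters on a modified Illumina MiSeq flow-cell annealed to 100 nM quencher-labelled ATP aptamer. Five buffer/ATP cycles were run with NaOH stripping and re-annealing between them. The fluorescence ratio per cluster is summed target-cycle over summed buffer-cycle Cy3 intensity, averaged per switch-domain sequence. Clusters outside 100-1000 RFU were excluded.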

Sequence | switch fluorescence ratio
TCAACTTG | 1.03
GCGCTTCAGG | 1.06
AGGCGCTGTG | 0.988
CAGTCTGCC | 1.01
TACCGCATAG | 6.23
AGGTAGAGAC | 1.02
CAGTAGCTTA | 1.71
ACTCATAAGC | 1.02
CAATTGCGCA | 0.966
AAGGCTGAGC | 1.03
GCGCACCATT | 0.968
CACCGGCATA | 2.11
GTGTTGATGA | 0.975
GCTTTAGGC | 0.977
TTTATCTACG | 1.14
CGCCTCTTAC | 2.14
GCGCAATGAA | 1.11
GGTCCAAGA | 1
TGGCGGCGGG | 1
CCCCACTGGT | 1.55
CAACAACCTC | 1.03
TATCTTGGTT | 0.951
GAATCCACAG | 1.05
CCATCGTATA | 1.28
ATACCTCCGA | 2.29
CCAGCAGGCG | 1.25

Sequence | switch fluorescence ratio
AGCGATCAAA | 1.03
CTACGGAAAT | 1.13
GTTTCCGTAA | 5.43
TTAGTACAG | 1.02
ATTCGAAATT | 1.03
GTAAAATGT | 0.923
GAGTTCATTA | 0.981
CAGCCATTTT | 1.02
GACCACGGAG | 1.03
GCCAAAGGAA | 1.01
TAACGGACGC | 1.14
GAATCCTCCG | 3.33
CTCGTCCGGA | 1.21
TTGGAGGTC | 1.03
GGCCAATGCA | 0.979
TATTGCCGTC | 1.04
GAGCTCTATC | 0.974
TAACAACTCC | 1.07
GACCACTAGT | 1.02
TTATGATCAC | 1.04
TGATTCGAAC | 1
GAGATCTAGG | 0.997
AAGGGACGTA | 1.01
TAAATCCTCA | 0.996
CGGGTTACAT | 0.961
ATATAGTAGG | 1.02

Sequence | switch fluorescence ratio
GGAAATGATG | 0.949
AGTGCGGAT | 1.03
TGACACGGCC | 1.11
CAATTCGTTC | 1.04
ACGATGGGA | 0.965
GTGCTTTCCT | 1.05
TCGCACTTGT | 1.32
TGCTAAGTGG | 0.962
ATACCATTAA | 0.989
CCATTTGGAC | 1.01
ACGGGGCGAC | 0.99
ATAGTGTACG | 1.04
GAGCGTGCCT | 1.02
TACTGATGCA | 0.95
AGGATGAGGC | 0.938
TATGCCCTGC | 1.03
ATCTTGTAAG | 0.961
AGCTTTTAGG | 0.995
CGTATAGAAA | 1.05
GGTTAGAAAC | 0.992
GCCACCCTTG | 0.978
ATTTTTAATT | 0.995
GAATTGGTCA | 0.986
ATAGTTGCT | 0.971
CAGAAGGGTA | 0.978
AAACGAGGAT | 1.01

Sequence | switch fluorescence ratio
GTATGCTTCA | 0.965
AATCGAGAC | 1.03
GTTGCACGAT | 0.982
TATAGCGCGA | 1.01
TATAAAGCGA | 1.01
CGTGGTCCTC | 1.01
CGAGAGGTTC | 1
GGCAATGCGC | 1.84
CGGGCATCGT | 0.999
TTTCTTTCGC | 1.05
CGGGTCAAAT | 0.986
TTAGGGT | 0.993
CCCAGCACGG | 1.2
TGGGGACTGT | 0.996
CGCTTGTCTC | 1.18
CATCTGTGGT | 0.997
ATTTTCCTCA | 1.09
CCAATATCCA | 1.08
CATAGGCAGA | 1.04
GTGGGCCTAG | 1.01
GCGGTCCTTG | 1.01
TGTGGAAAAC | 1.05
GCCATCAGTT | 1.02
AACGTATCGG | 0.99
AAGAGCATAT | 1.09
AAAGGGAATT | 0.921

Sequence | switch fluorescence ratio
TATGCTGTA | 1.1
AATAGAGGTA | 0.983
TTACTTACGG | 1.59
TATTAATGAA | 1.01
TGTTAACGAG | 1.03
TATTTTTAG | 0.991
CCAAGTGAGA | 1.03
CAATCGTGTC | 0.988
CACGCTGCGC | 1.02
CCTCATTCCG | 1.23
TTAATGAGG | 1.07
TTAATGTTTT | 1
ATTGGAATCC | 1.06
CTAGGAAA | 0.97
GTCACCGTTC | 1
TTAATGGCAG | 1.02
CGTCACATG | 1.02
CGTTATGGTG | 1.05
GCCCTCAGGT | 1.77
GCAGGACTCA | 2.5
GTTAGTTTAT | 0.956
GTCTGGGGCA | 0.959
AAGAAGGTGC | 1.41
TACTTTTATG | 1.02
CGAGGGAGCT | 1.05
TCTAGTTAAG | 0.999

Sequence | switch fluorescence ratio
GAATTGACTA | 1.03
TTTGTTCCGG | 0.958
AAAGTATCTA | 0.98
GGAATTCTAG | 0.959
GTATTGAATA | 0.969
AGGCATACCT | 1.03
GGGGCCTTGC | 1.07
TTTATGCGCG | 0.96
AAATGTCCTT | 1.08
TTAACACCAA | 1
AAACCGAG | 1.78
AAAGAGAACA | 1.03
TTACAAAGTA | 0.984
GGTTATTGTT | 0.982
AGCGACGTGT | 0.996
ATTGCCGCAA | 3.04
GAGGTATAAA | 1.01
TACAGCCCG | 0.947
TGGGAATGGA | 1.03
CGCCGAATTA | 1.04
TCATCAGACA | 0.999
CCTCGGTGCA | 1.62
TCGGGTCAGC | 1.1
AGGGTAGAGA | 1.05
TTAGCATTTT | 1.01
TGGGATGAAT | 0.975

Sequence | switch fluorescence ratio
GCTGTTAGTT | 1.03
CGAATGCCCT | 1
AGAATCGCGC | 0.997
CTGCGGATGC | 1.4
TCATGCTATG | 0.953
ACCGCACAGT | 1.68
TTAAATTATA | 1.02
GGTTACTACC | 1.03
GGTTGGAGAC | 0.998
ACCGGGCCTA | 0.974
TGATCGACCG | 1.02
CTCTAGGCAG | 1.09
CGCAGACTT | 1.42
GTTATGACAG | 0.931
CCGCTATGAT | 4.73
TGCAATCATT | 1.07
AAGCATTCAG | 1.01
CTCCGGCTGT | 4.91
CAGCATACG | 1.83
ATAATGGGAG | 0.999
TCATTATTGC | 1.09
TCAGGATTCG | 0.989
GCTCCTGAGT | 1
AACCGACGTG | 1.17
GTTGAGTCAG | 1.05
CATGTGGATT | 1.02

Sequence | switch fluorescence ratio
CGTATCTTAT | 1.02
GTTATGCGAC | 0.993
GCCTTAGAAT | 0.995
ATAAAGGAAC | 1.02
GAACCACGAA | 1.04
CAAATAGCGA | 1.08
CCTTTGGGCC | 0.948
AAATAAAAGT | 0.975
ACGAGATAGA | 0.99
AAAAAAGAT | 0.955
AGGATGACAT | 1.08
GTAAGTGGGA | 1.06
AATAAACCGG | 0.994
TGCAAAACAC | 1.07
AATCATTGAA | 0.981
AATTTAGAGC | 1.01
CCGGTCCCCA | 1.24
CAGGTAACTT | 1.01
TTGCTAACGT | 1.01
